This is an account of results in publication PMC12820563.

Some of the results follow. The list includes weakly bound sequences.

For this assay, the target named is T1, MBP-FoxP3dN (UniProt Q99JB6).
T1 sequence: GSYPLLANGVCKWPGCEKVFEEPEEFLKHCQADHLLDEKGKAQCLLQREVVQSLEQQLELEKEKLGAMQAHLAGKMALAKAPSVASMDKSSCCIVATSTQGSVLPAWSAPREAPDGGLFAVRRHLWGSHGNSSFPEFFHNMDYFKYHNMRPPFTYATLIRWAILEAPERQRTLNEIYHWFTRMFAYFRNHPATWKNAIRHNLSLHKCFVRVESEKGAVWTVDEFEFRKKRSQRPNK
The assay is described as follows: PD-seq (MBP pull-down with sequencing). The note with it: 20 mM Tris-HCl pH 7.5, 100 mM NaCl, 1.5 mM MgCl2, 0.4 uM protein, 0.1 uM dsDNA library, 30 min, room temperature, amylose pull-down; high values mean tight binding; double strand, one strand shown.
“GATGATTGTTCTCCCAGCTGATGAATTTCAGCAATCGAGTAAACAAATTTTCCTAATCTTTCTGTTCAAGCGCCATCTAC”: the binding signal (RPM ratio (pull-down/input)) turned out to be 1.94. In the case of “GATGATTGTTCTCCCAGCTGATGAATTTGACTCTTCGAGTAAACAAATTTTCCTAATCTTTCTGTTCAAGCGCCATCTAC” it was 0.551; in that of “GATGATTGTTCTCCCAGCTGATGAATTTAGTCGCTCGAGTAAACAAATTTTCCTAATCTTTCTGTTCAAGCGCCATCTAC”, 0.513. In the case of “GATGATTGTTCTCCCAGCTGATGAATTTTGCATCTCGAGTAAACAAATTTTCCTAATCTTTCTGTTCAAGCGCCATCTAC” it was 7.18; in that of “GATGATTGTTCTCCCAGCTGATGAATTAAGGTTATCGAGTAAACAAATTTTCCTAATCTTTCTGTTCAAGCGCCATCTAC”, 0.726.

Regarding “GATGATTGTTCTCCCAGCTGATGAATTCCGCGCATCGAGTAAACAAATTTTCCTAATCTTTCTGTTCAAGCGCCATCTAC”, the binding signal (RPM ratio (pull-down/input)) was 1.39. In the case of “GATGATTGTTCTCCCAGCTGATGAATTAAATAAATCGAGTAAACAAATTTTCCTAATCTTTCTGTTCAAGCGCCATCTAC” it was 0.375; in that of “GATGATTGTTCTCCCAGCTGATGAATTGGTAATATCGAGTAAACAAATTTTCCTAATCTTTCTGTTCAAGCGCCATCTAC”, 0.681; in that of “GATGATTGTTCTCCCAGCTGATGAATTGACCTGTTCGAGTAAACAAATTTTCCTAATCTTTCTGTTCAAGCGCCATCTAC”, 0.348. With “GATGATTGTTCTCCCAGCTGATGAATTACCCGACTCGAGTAAACAAATTTTCCTAATCTTTCTGTTCAAGCGCCATCTAC” the figure was 0.247; with “GATGATTGTTCTCCCAGCTGATGAATTCAGACGTTCGAGTAAACAAATTTTCCTAATCTTTCTGTTCAAGCGCCATCTAC”, 0.336; with “GATGATTGTTCTCCCAGCTGATGAATTTTAGCTCTCGAGTAAACAAATTTTCCTAATCTTTCTGTTCAAGCGCCATCTAC”, 0.335. In the case of “GATGATTGTTCTCCCAGCTGATGAATTTGCGACATCGAGTAAACAAATTTTCCTAATCTTTCTGTTCAAGCGCCATCTAC” it was 1.3; in that of “GATGATTGTTCTCCCAGCTGATGAATTGGATGAGTCGAGTAAACAAATTTTCCTAATCTTTCTGTTCAAGCGCCATCTAC”, 0.415. As for “GATGATTGTTCTCCCAGCTGATGAATTAACGTAATCGAGTAAACAAATTTTCCTAATCTTTCTGTTCAAGCGCCATCTAC”, the binding signal (RPM ratio (pull-down/input)) was determined as 0.586. For “GATGATTGTTCTCCCAGCTGATGAATTACGACGTTCGAGTAAACAAATTTTCCTAATCTTTCTGTTCAAGCGCCATCTAC”, the binding signal (RPM ratio (pull-down/input)) was found to be 0.637. In the case of “GATGATTGTTCTCCCAGCTGATGAATTGTCTCTGTCGAGTAAACAAATTTTCCTAATCTTTCTGTTCAAGCGCCATCTAC” it was 0.348; in that of “GATGATTGTTCTCCCAGCTGATGAATTGTCTGTATCGAGTAAACAAATTTTCCTAATCTTTCTGTTCAAGCGCCATCTAC”, 0.624. In the case of “GATGATTGTTCTCCCAGCTGATGAATTGACACGATCGAGTAAACAAATTTTCCTAATCTTTCTGTTCAAGCGCCATCTAC” it was 0.397; in that of “GATGATTGTTCTCCCAGCTGATGAATTGGTGTGATCGAGTAAACAAATTTTCCTAATCTTTCTGTTCAAGCGCCATCTAC”, 0.897. With “GATGATTGTTCTCCCAGCTGATGAATTACTGGTTTCGAGTAAACAAATTTTCCTAATCTTTCTGTTCAAGCGCCATCTAC” the figure was 0.492; with “GATGATTGTTCTCCCAGCTGATGAATTAATGGGCTCGAGTAAACAAATTTTCCTAATCTTTCTGTTCAAGCGCCATCTAC”, 0.419; with “GATGATTGTTCTCCCAGCTGATGAATTAATTTGGTCGAGTAAACAAATTTTCCTAATCTTTCTGTTCAAGCGCCATCTAC”, 2.36. “GATGATTGTTCTCCCAGCTGATGAATTAACTTGCTCGAGTAAACAAATTTTCCTAATCTTTCTGTTCAAGCGCCATCTAC”: the binding signal (RPM ratio (pull-down/input)) was found to be 0.442.

Consider “GATGATTGTTCTCCCAGCTGATGAATTCTTGCGTTCGAGTAAACAAATTTTCCTAATCTTTCTGTTCAAGCGCCATCTAC”, for which the binding signal (RPM ratio (pull-down/input)) was 1.43. “GATGATTGTTCTCCCAGCTGATGAATTGTGCGGCTCGAGTAAACAAATTTTCCTAATCTTTCTGTTCAAGCGCCATCTAC”: the binding signal (RPM ratio (pull-down/input)) was 1.63. With “GATGATTGTTCTCCCAGCTGATGAATTGTTTTCATCGAGTAAACAAATTTTCCTAATCTTTCTGTTCAAGCGCCATCTAC” the figure was 3.3. In the case of “GATGATTGTTCTCCCAGCTGATGAATTAGGTACATCGAGTAAACAAATTTTCCTAATCTTTCTGTTCAAGCGCCATCTAC” it was 0.56; in that of “GATGATTGTTCTCCCAGCTGATGAATTTGTGAATTCGAGTAAACAAATTTTCCTAATCTTTCTGTTCAAGCGCCATCTAC”, 1.45; in that of “GATGATTGTTCTCCCAGCTGATGAATTAGTAGATTCGAGTAAACAAATTTTCCTAATCTTTCTGTTCAAGCGCCATCTAC”, 0.723. In the case of “GATGATTGTTCTCCCAGCTGATGAATTGGGACCTTCGAGTAAACAAATTTTCCTAATCTTTCTGTTCAAGCGCCATCTAC” it was 0.351; in that of “GATGATTGTTCTCCCAGCTGATGAATTGATGCTTTCGAGTAAACAAATTTTCCTAATCTTTCTGTTCAAGCGCCATCTAC”, 2.5. On to “GATGATTGTTCTCCCAGCTGATGAATTGGTGCCTTCGAGTAAACAAATTTTCCTAATCTTTCTGTTCAAGCGCCATCTAC”, for which the binding signal (RPM ratio (pull-down/input)) amounted to 2.34. With “GATGATTGTTCTCCCAGCTGATGAATTATAACGTTCGAGTAAACAAATTTTCCTAATCTTTCTGTTCAAGCGCCATCTAC” the figure was 0.573; with “GATGATTGTTCTCCCAGCTGATGAATTGAGCATTTCGAGTAAACAAATTTTCCTAATCTTTCTGTTCAAGCGCCATCTAC”, 6.08; with “GATGATTGTTCTCCCAGCTGATGAATTGCCATTTTCGAGTAAACAAATTTTCCTAATCTTTCTGTTCAAGCGCCATCTAC”, 1.02. With “GATGATTGTTCTCCCAGCTGATGAATTAGAGTTCTCGAGTAAACAAATTTTCCTAATCTTTCTGTTCAAGCGCCATCTAC” the figure was 0.722.

Take “GATGATTGTTCTCCCAGCTGATGAATTTGTCCTATCGAGTAAACAAATTTTCCTAATCTTTCTGTTCAAGCGCCATCTAC”: the binding signal (RPM ratio (pull-down/input)) is 2.73.

In the case of “GATGATTGTTCTCCCAGCTGATGAATTGAGCGCTTCGAGTAAACAAATTTTCCTAATCTTTCTGTTCAAGCGCCATCTAC”, the binding signal (RPM ratio (pull-down/input)) is 0.62. With “GATGATTGTTCTCCCAGCTGATGAATTACAGTATTCGAGTAAACAAATTTTCCTAATCTTTCTGTTCAAGCGCCATCTAC” the figure was 1.22. With “GATGATTGTTCTCCCAGCTGATGAATTACGGGAGTCGAGTAAACAAATTTTCCTAATCTTTCTGTTCAAGCGCCATCTAC” the figure was 0.305. With “GATGATTGTTCTCCCAGCTGATGAATTCATCCCGTCGAGTAAACAAATTTTCCTAATCTTTCTGTTCAAGCGCCATCTAC” the figure was 0.339; with “GATGATTGTTCTCCCAGCTGATGAATTGCTTATTTCGAGTAAACAAATTTTCCTAATCTTTCTGTTCAAGCGCCATCTAC”, 2.46. As to “GATGATTGTTCTCCCAGCTGATGAATTCGAAAGCTCGAGTAAACAAATTTTCCTAATCTTTCTGTTCAAGCGCCATCTAC”, the binding signal (RPM ratio (pull-down/input)) was 0.226. With “GATGATTGTTCTCCCAGCTGATGAATTAAATGAATCGAGTAAACAAATTTTCCTAATCTTTCTGTTCAAGCGCCATCTAC” the figure was 0.236; with “GATGATTGTTCTCCCAGCTGATGAATTGTTTCGATCGAGTAAACAAATTTTCCTAATCTTTCTGTTCAAGCGCCATCTAC”, 0.819; with “GATGATTGTTCTCCCAGCTGATGAATTTTCATCTTCGAGTAAACAAATTTTCCTAATCTTTCTGTTCAAGCGCCATCTAC”, 0.357.

Take “GATGATTGTTCTCCCAGCTGATGAATTTGCCTGTTCGAGTAAACAAATTTTCCTAATCTTTCTGTTCAAGCGCCATCTAC”: the binding signal (RPM ratio (pull-down/input)) stood at 1.19. “GATGATTGTTCTCCCAGCTGATGAATTTAGACGTTCGAGTAAACAAATTTTCCTAATCTTTCTGTTCAAGCGCCATCTAC”: the binding signal (RPM ratio (pull-down/input)) was found to be 0.567.

Consider “GATGATTGTTCTCCCAGCTGATGAATTTTTCTGGTCGAGTAAACAAATTTTCCTAATCTTTCTGTTCAAGCGCCATCTAC”, for which the binding signal (RPM ratio (pull-down/input)) came out at 0.207.

As to “GATGATTGTTCTCCCAGCTGATGAATTCCCCTACTCGAGTAAACAAATTTTCCTAATCTTTCTGTTCAAGCGCCATCTAC”, the binding signal (RPM ratio (pull-down/input)) amounted to 0.276. With “GATGATTGTTCTCCCAGCTGATGAATTTCCGTAGTCGAGTAAACAAATTTTCCTAATCTTTCTGTTCAAGCGCCATCTAC” the figure was 0.299; with “GATGATTGTTCTCCCAGCTGATGAATTTGTGTTTTCGAGTAAACAAATTTTCCTAATCTTTCTGTTCAAGCGCCATCTAC”, 5.24; with “GATGATTGTTCTCCCAGCTGATGAATTATGTGACTCGAGTAAACAAATTTTCCTAATCTTTCTGTTCAAGCGCCATCTAC”, 1.8.

Take “GATGATTGTTCTCCCAGCTGATGAATTTATAAGGTCGAGTAAACAAATTTTCCTAATCTTTCTGTTCAAGCGCCATCTAC”: the binding signal (RPM ratio (pull-down/input)) is 0.412. With “GATGATTGTTCTCCCAGCTGATGAATTACTCTACTCGAGTAAACAAATTTTCCTAATCTTTCTGTTCAAGCGCCATCTAC” the figure was 0.302. On to “GATGATTGTTCTCCCAGCTGATGAATTCCGGCATTCGAGTAAACAAATTTTCCTAATCTTTCTGTTCAAGCGCCATCTAC”, for which the binding signal (RPM ratio (pull-down/input)) was determined as 4.43. With “GATGATTGTTCTCCCAGCTGATGAATTACAAGAATCGAGTAAACAAATTTTCCTAATCTTTCTGTTCAAGCGCCATCTAC” the figure was 0.298. With “GATGATTGTTCTCCCAGCTGATGAATTAACTCCCTCGAGTAAACAAATTTTCCTAATCTTTCTGTTCAAGCGCCATCTAC” the figure was 0.259. With “GATGATTGTTCTCCCAGCTGATGAATTCTTAAGATCGAGTAAACAAATTTTCCTAATCTTTCTGTTCAAGCGCCATCTAC” the figure was 0.196; with “GATGATTGTTCTCCCAGCTGATGAATTTATTCGCTCGAGTAAACAAATTTTCCTAATCTTTCTGTTCAAGCGCCATCTAC”, 0.584. On to “GATGATTGTTCTCCCAGCTGATGAATTCGCTTGTTCGAGTAAACAAATTTTCCTAATCTTTCTGTTCAAGCGCCATCTAC”, for which the binding signal (RPM ratio (pull-down/input)) turned out to be 3.3. With “GATGATTGTTCTCCCAGCTGATGAATTTAGGAGCTCGAGTAAACAAATTTTCCTAATCTTTCTGTTCAAGCGCCATCTAC” the figure was 0.302.
